The supplement of paper PMC8728848
The list shows a part of the results.

Tests used:
Assay in all cases: glycan array binding signal (z-score within array); higher = stronger binding
Conditions in all cases: glycan notation: IUPAC condensed, linker removed
[1] = molecular target: GalNAc(b1-4)GlcNAc(b1-3)GalNAc(b1-4)GlcNAc
Method in brief: (§1)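 Glycan array data came from 3228 arrays in the Consortium for Functional Glycomics database, and only arrays with an available protein sequence were kept. Glycan names were put into IUPAC-condensed notation, and columns mapping to the same glycan were averaged. The binding signal is a within-array Z-score, averaged across arrays of one protein sequence run at different concentrations or buffers and across linkers. A negative Z-score can be read as non-binding.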

GalNAc(b1-4)GlcNAc6S = molecular target: GalNAc(b1-4)GlcNAc6S
Method in brief: as §1

GalNAc(b1-6)GalNAc = molecular target: GalNAc(b1-6)GalNAc
Method in brief: as §1

GalNAc3S(b1-4)GlcNAc = molecular target: GalNAc3S(b1-4)GlcNAc
Method in brief: as §1

GalNAc3S(b1-4)GlcNAc3S = molecular target: GalNAc3S(b1-4)GlcNAc3S
Method in brief: as §1

[2] = molecular target: GalNAc3S(b1-4)[Fuc(a1-3)]GlcNAc
Method in brief: as §1

GalNAc4S6S(b1-4)GlcNAc = molecular target: GalNAc4S6S(b1-4)GlcNAc
Method in brief: as §1

GalNAc6S(b1-4)GlcNAc = molecular target: GalNAc6S(b1-4)GlcNAc
Method in brief: as §1

Glc(a1-4)Glc = molecular target: Glc(a1-4)Glc
Method in brief: as §1

[3] = molecular target: Glc(a1-4)Glc(a1-4)Glc(a1-4)Glc
Method in brief: as §1

Glc(a1-6)Glc(a1-6)Glc = molecular target: Glc(a1-6)Glc(a1-6)Glc
Method in brief: as §1

[4] = molecular target: Glc(a1-6)Glc(a1-6)Glc(a1-6)Glc
Method in brief: as §1

Glc(b1-4)Glc = molecular target: Glc(b1-4)Glc
Method in brief: as §1

Glc(b1-6)Glc = molecular target: Glc(b1-6)Glc
Method in brief: as §1

GlcA(b1-3)Gal = molecular target: GlcA(b1-3)Gal
Method in brief: as §1

GlcA(b1-3)GlcNAc = molecular target: GlcA(b1-3)GlcNAc
Method in brief: as §1

GlcA(b1-6)Gal = molecular target: GlcA(b1-6)Gal
Method in brief: as §1

[5] = molecular target: GlcA3S(b1-3)Gal(b1-4)GlcNAc(b1-2)Man
Method in brief: as §1

[6] = molecular target: GlcA3S(b1-3)Gal(b1-4)GlcNAc(b1-3)Gal(b1-4)Glc
Method in brief: as §1

[7] = molecular target: GlcNAc(a1-3)Gal(b1-4)GlcNAc
Method in brief: as §1

[8] = molecular target: GlcNAc(a1-4)Gal(b1-3)GlcNAc
Method in brief: as §1

[9] = molecular target: GlcNAc(a1-4)Gal(b1-4)GalNAc
Method in brief: as §1

[10] = molecular target: GlcNAc(a1-4)Gal(b1-4)GlcNAc
Method in brief: as §1

[11] = molecular target: GlcNAc(a1-4)Gal(b1-4)GlcNAc(b1-3)Gal(b1-4)Glc
Method in brief: as §1

[12] = molecular target: GlcNAc(a1-4)Gal(b1-4)GlcNAc(b1-3)Gal(b1-4)GlcNAc
Method in brief: as §1

[13] = molecular target: GlcNAc(a1-4)Gal(b1-4)GlcNAc(b1-3)Gal(b1-4)GlcNAc(b1-3)Gal(b1-4)GlcNAc
Method in brief: as §1

[14] = molecular target: GlcNAc(a1-4)Gal(b1-4)GlcNAc(b1-3)Gal(b1-4)[Fuc(a1-3)]GlcNAc(b1-3)Gal(b1-4)[Fuc(a1-3)]GlcNAc
Method in brief: as §1

[15] = molecular target: GlcNAc(a1-6)Gal(b1-4)GlcNAc
Method in brief: as §1

[16] = molecular target: GlcNAc(b1-2)Gal(b1-3)GalNAc
Method in brief: as §1

[17] = molecular target: GlcNAc(b1-2)Man(a1-3)[GlcNAc(b1-2)Man(a1-6)]Man(b1-4)GlcNAc(b1-4)GlcNAc
Method in brief: as §1

[18] = molecular target: GlcNAc(b1-2)Man(a1-3)[GlcNAc(b1-2)Man(a1-6)]Man(b1-4)GlcNAc(b1-4)[Fuc(a1-6)]GlcNAc
Method in brief: as §1

[19] = molecular target: GlcNAc(b1-2)Man(a1-3)[GlcNAc(b1-4)][GlcNAc(b1-2)Man(a1-6)]Man(b1-4)GlcNAc(b1-4)GlcNAc
Method in brief: as §1

[20] = molecular target: GlcNAc(b1-2)Man(a1-3)[GlcNAc(b1-4)][GlcNAc(b1-2)Man(a1-6)]Man(b1-4)GlcNAc(b1-4)[Fuc(a1-6)]GlcNAc
Method in brief: as §1

[21] = molecular target: GlcNAc(b1-2)[GlcNAc(b1-4)]Man(a1-3)[GlcNAc(b1-2)Man(a1-6)]Man(b1-4)GlcNAc(b1-4)GlcNAc
Method in brief: as §1

[22] = molecular target: GlcNAc(b1-2)[GlcNAc(b1-4)]Man(a1-3)[GlcNAc(b1-4)][GlcNAc(b1-2)Man(a1-6)]Man(b1-4)GlcNAc(b1-4)GlcNAc
Method in brief: as §1

[23] = molecular target: GlcNAc(b1-2)[GlcNAc(b1-4)]Man(a1-3)[GlcNAc(b1-4)][GlcNAc(b1-2)[GlcNAc(b1-6)]Man(a1-6)]Man(b1-4)GlcNAc(b1-4)GlcNAc
Method in brief: as §1

[24] = molecular target: GlcNAc(b1-2)[GlcNAc(b1-4)]Man(a1-3)[GlcNAc(b1-4)][GlcNAc(b1-2)[GlcNAc(b1-6)]Man(a1-6)]Man(b1-4)GlcNAc(b1-4)[Fuc(a1-6)]GlcNAc
Method in brief: as §1

[25] = molecular target: GlcNAc(b1-2)[GlcNAc(b1-6)]Man(a1-6)[GlcNAc(b1-2)Man(a1-3)]Man(b1-4)GlcNAc(b1-4)GlcNAc
Method in brief: as §1

B1: Siglec-7-SA-PE-180 (Homo sapiens), Q9Y286 (protein)
chain: MLLLLLLPLLWGRERVEGQKSNRKDYSLTMQSSVTVQEGMCVHVRCSFSYPVDSQTDSDPVHGYWFRAGNDISWKAPVATNNPAWAVQEETRDRFHLLGDPQTKNCTLSIRDARMSDAGRYFFRMEKGNIKWNYKYDQLSVNVTALTHRPNILIPGTLESGCFQNLTCSVPWACEQGTPPMISWMGTSVSPLHPSTTRSSVLTLIPQPQHHGTSLTCQVTLPGAGVTTNRTIQLNVSYPPQNLTVTVFQGEGTASTALGNSSSLSVLEGQSLRLVCAVDSNPPARLSWTWRSLTLYPSQPSNPLVLELQVHLGDEGEFTCRAQNSLGSQHVSLNLSLQQEYTGKMRPVSGVLLGAVGGAGATALVFLSFCVIFIVVRSCRKKSARPAADVGDIGMKDANTIRGSASQGNLTESWADDNPRHHGLAAHSSGEEREIQYAPLSFHKGEPQDLSGQEATNNEYSEIKIPK
**Q.** Which results are given for B1?
**A.** glycan array binding signal (z-score) [1]: 0.047; glycan array binding signal (z-score) (GalNAc(b1-4)GlcNAc6S): 0.047; glycan array binding signal (z-score) (GalNAc(b1-6)GalNAc): -0.316; glycan array binding signal (z-score) (GalNAc3S(b1-4)GlcNAc): 0.257; glycan array binding signal (z-score) (GalNAc3S(b1-4)GlcNAc3S): 2.05; glycan array binding signal (z-score) [2]: 0.264; glycan array binding signal (z-score) (GalNAc4S6S(b1-4)GlcNAc): 1.85; glycan array binding signal (z-score) (GalNAc6S(b1-4)GlcNAc): -0.109; glycan array binding signal (z-score) (Glc(a1-4)Glc): -0.298; glycan array binding signal (z-score) [3]: 0.005; glycan array binding signal (z-score) (Glc(a1-6)Glc(a1-6)Glc): -0.077; glycan array binding signal (z-score) [4]: -0.284; glycan array binding signal (z-score) (Glc(b1-4)Glc): 0.233; glycan array binding signal (z-score) (Glc(b1-6)Glc): -0.08; glycan array binding signal (z-score) (GlcA(b1-3)Gal): 0.027; glycan array binding signal (z-score) (GlcA(b1-3)GlcNAc): -0.229; glycan array binding signal (z-score) (GlcA(b1-6)Gal): -0.205; glycan array binding signal (z-score) [5]: -0.333; glycan array binding signal (z-score) [6]: -0.241; glycan array binding signal (z-score) [7]: -0.138; glycan array binding signal (z-score) [8]: 0.337; glycan array binding signal (z-score) [9]: -0.175; glycan array binding signal (z-score) [10]: -0.219; glycan array binding signal (z-score) [11]: -0.326; glycan array binding signal (z-score) [12]: -0.387; glycan array binding signal (z-score) [13]: -0.297; glycan array binding signal (z-score) [14]: 0.22; glycan array binding signal (z-score) [15]: -0.299; glycan array binding signal (z-score) [16]: -0.03; glycan array binding signal (z-score) [17]: -0.294; glycan array binding signal (z-score) [18]: -0.172; glycan array binding signal (z-score) [19]: -0.385; glycan array binding signal (z-score) [20]: -0.618; glycan array binding signal (z-score) [21]: -0.272; glycan array binding signal (z-score) [22]: -0.191; glycan array binding signal (z-score) [23]: -0.408; glycan array binding signal (z-score) [24]: -0.13; glycan array binding signal (z-score) [25]: -0.074
